Results: PubChem BioAssay AID2546 (National Center for Advancing Translational Sciences (NCATS), 2010)
“And” between values parts separate entries of the source, which are not always exact repeats. Equal entries are not always repeated. In all, about 310,000 compounds went through this assay and about 11,000 (3.5%) were called active. This list was built around the results that the source calls inconclusive (neither active nor inactive); the mix of calls is not that of the screen. Calls come from the whole dose curve; as a rule, active = well fitted inhibition curve with a large enough effect; inconclusive = small, poorly fitted or top-dose-only effect, or effect the other way; inactive = flat fitted curve, though single readings scatter. Potencies beside an inconclusive call are fits to weak or partial responses and may not hold up.

Assay: VP16 counterscreen qHTS for inhibitors of ROR gamma transcriptional activity;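 note: Gal4-VP16 expression switched on by copper sulfate through the metallothionein promoter; nearly all actives have a fitted effect of over 50% in size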
Settings: Drosophila S2 Gal4-VP16 UAS-luciferase, luminescence, 20 h; activity, negative = inhibition: at 53.6 µM (top of the series)
% is set by controls: 0 for no effect and ±100 for the full control effect; potency is the fitted concentration of half-maximal effect; tags give direction and shape of the fitted curve.

SMILES	Potency	activity, negative = inhibition
Cc1cccc(C)c1NC1=NC(=S)N(c2ccc(N(C)C)cc2)C1(C)C	inconclusive: 22.4 µM [inhibitor, single point]	–
Cc1ccc(-n2c(C)cc(C(=O)Cn3nc(C(=O)O)c4ccccc4c3=O)c2C)cc1	inconclusive: 35.5 µM [inhibitor, single point]	–
Cc1cccc2c1-c1sc(C(=O)Nc3nccs3)cc1CO2	active: 5.62 µM	–
CN(C)S(=O)(=O)c1ccc(NC(=O)CNc2cc(S(=O)(=O)N3CCCC3)ccc2OCC(F)(F)F)cc1	inconclusive: 35.5 µM [inhibitor, single point]	–
N#C/C(=C\Nc1ccc2cn[nH]c2c1)c1nc(-c2ccc(Cl)cc2)cs1	inconclusive: 3.55 µM [inhibitor, single point]	–
CCOC(=O)CC(C(=O)OCC)C1CCCCC1=O (stereo unspecified)	–	inactive: -5.89%
CCC(C)NC(=O)c1ccc2c(c1)S(=O)(=O)c1ccccc1C2=O (stereo unspecified)	inconclusive: 7.08 µM [activator, full curve]	–
Cc1ccc(OCC(=O)N/N=C/C=C/c2ccco2)cc1	inconclusive: 35.5 µM [inhibitor, single point]	–
COC(=O)c1ccc(Cn2cc(/C=C\[N+](=O)[O-])c3ccccc32)o1	inconclusive: 12.6 µM [inhibitor, single point]	–
O=C(N/N=C/c1ccccc1O)C1SCCCS1	active: 5.01 µM	–
Cc1nc2ccc(S(=O)(=O)c3ccc4nc(C)[nH]c4c3)cc2[nH]1	–	inactive: -1.73%
CNC(=O)COc1ccc(S(=O)(=O)N2CCCC2)cc1	–	inactive: -5.22%
COC(=O)CS	–	inactive: 4.19%
Cc1cc(SCC(=O)c2cccc([N+](=O)[O-])c2)nc(=O)[nH]1	–	inactive: 18.1%
O=C(Nc1c2ccccc2nc2ccccc12)C(Cl)(Cl)Cl	inconclusive: 35.5 µM [inhibitor, single point]	–
COc1ccc(-c2[nH]c3ccccc3c2SCCNC(=O)c2ccccc2)cc1	inconclusive: 35.5 µM [inhibitor, single point]	–
CCCC[C@@H]1CNC(=S)N1CC1CCCCC1	active: 6.31 µM	–
C[C@H](NC(=O)[C@H]1N2C(=O)c3ccccc3C2SC1(C)C)C(=O)N1CCC[C@H]1CO (stereo partly specified)	–	inactive: -1.26%
O=C(NC(=S)Nc1cccc(CO)c1)c1ccc(-c2ccccc2)cc1	active: 2.82 µM	–
COc1cc2c(cc1OC)C(c1cc(C)ccc1C)CC(=O)N2 (stereo unspecified)	–	inactive: 7.13%
Cn1cnnc1SCc1ccc(C(=O)N/N=C(\CCC(=O)O)c2ccc(C(C)(C)C)cc2)cc1	inconclusive: 17.8 µM [activator, single point]	–
N#CC1=C(N)OC(c2ccccc2)=C(C#N)C1c1ccc2c(c1)OCO2 (stereo unspecified)	–	inactive: 1.35%
C/C(Cn1nc([N+](=O)[O-])cc1C)=N\NC(=O)c1cccc(Br)c1	inconclusive: 35.5 µM [inhibitor, single point]	–
O=C(NCCSc1ccccn1)c1ccc(Cl)cc1	inconclusive: 11.2 µM [inhibitor, single point]	–
O=C(c1cc(-c2ccccc2)nc2ccccc12)N1CCCC1	–	inactive: -6.99%
C=CCn1c(-c2ccc3[nH]c(C)c(C)c3c2)n[nH]c1=S	active: 12.6 µM	–

SMILES	Potency	activity, negative = inhibition
O=C(CSc1nc2ccccc2s1)N/N=C/c1cc([N+](=O)[O-])ccc1O	inconclusive: 22.4 µM [inhibitor, single point]	–
CCCCC#Cc1cncc(C(=O)N/N=C/c2ccccc2)c1	inconclusive: 11.2 µM [inhibitor, partial curve]	–
CCCn1c(NC(=O)C2CCN(S(=O)(=O)c3cccs3)CC2)nc2ccccc21	active: 4.47 µM	–
O=C1C=C(NC2=CC3OC(c4ccccc4)OCC3OC2=O)CCC1 (stereo unspecified)	active: 10 µM	–
CCOC(=O)c1c(NC(=O)CC2Sc3ccc(C(F)(F)F)cc3NC2=O)sc(C)c1C (stereo unspecified)	–	inactive: -6.19%
S=c1[nH]c2cc(-c3ccccc3)ccc2o1	active: 12.6 µM	–
COc1ccc(NC(=O)c2ccc(OC(F)F)cc2)cc1Cl	–	inactive: 1.04%
COC(=O)c1ccc2nc(Nc3nc4ccc(F)cc4s3)sc2c1	active: 3.55 µM	–
COc1ccc(C2c3[nH]c4ccccc4c3CCN2Cc2cccn2-c2ncccn2)cc1C (stereo unspecified)	inconclusive: 22.4 µM [inhibitor, single point]	–
Cc1ccc(CN(C(=O)COc2cccc(C)c2C)C2CCS(=O)(=O)C2)o1 (stereo unspecified)	–	inactive: -0.104%
COc1ccccc1NS(=O)(=O)c1ccc(O)c(C(=O)OCC(=O)c2ccc(Cl)cc2Cl)c1	–	inactive: 10.4%
C=CCn1c(=S)[nH]c2scc(-c3ccc(C)o3)c2c1=O	active: 1.26 µM	–
CC(C(=O)NCCN1C(=O)S/C(=C\c2cccs2)C1=O)N1C(=O)c2ccccc2C1=O (stereo unspecified)	inconclusive: 5.62 µM [activator, single point]	–
COc1cc2[nH]c(=S)n(Cc3ccc(C)cc3)c(=O)c2cc1OC	active: 3.16 µM	–
CC1(C)Oc2ccc3ccc(=O)oc3c2/C(=C/NNC(N)=O)C1=O	–	inactive: 0.449%
O=c1[nH]c(Nc2nc3ccccc3o2)nc2c1CCCC2	active: 10 µM	–
O=C(Cc1ccccc1)Nc1ccc(CN2CCOCC2)cc1	inconclusive: 35.5 µM [inhibitor, single point]	–
COc1ccc(CNc2ccnc(-c3ccc4c(c3)OCO4)n2)c(OC)c1	inconclusive: 15.8 µM [inhibitor, single point]	–
O=[N+]([O-])c1cncc([N+](=O)[O-])c1Nc1cccc(O)c1	active: 11.2 µM	–
Cn1nc([N+](=O)[O-])nc1Oc1ccccc1C(=O)N1CCOCC1	–	inactive: 4.6%
COc1cc(Nc2c3ccccc3nc3ccccc23)cc(OC)c1OC	inconclusive: 35.5 µM [inhibitor, single point]	–
CC(C)(C)c1nnc2sc(SCC(=O)c3cccs3)nn2c1=O	inconclusive: 25.1 µM [inhibitor, single point]	–
CCCCCCc1ccc(OC(=O)c2ccncc2)cc1	–	inactive: -3.91%
C=CCNC(=S)NCCCCC1NC(=S)N(CC=C)C1=O (stereo unspecified)	–	inactive: 3.74%
Cc1cc([N+](=O)[O-])ccc1NC(=S)NC(=O)Cc1ccccc1	inconclusive: 35.5 µM [inhibitor, single point]	–
Cc1ccc(C(=O)Nc2nnc(-c3ccco3)o2)cc1C	active: 0.891 µM	–

SMILES	Potency	activity, negative = inhibition
Cc1c(C(=O)NCCN2CCCC(O)C2)oc2c(F)cccc12 (stereo unspecified)	–	inactive: -3.36%
O=C1C(Nc2ccccc2)=C(N2CCCCC2)C(=O)c2ccccc21	–	inactive: 5.99%
COc1cc(NCCCC(C)N)c2ncccc2c1 (stereo unspecified)	inconclusive: 31.6 µM [activator, single point] and inconclusive: 35.5 µM [inhibitor, single point]	–
Cc1ccc(C(=O)NCC(=O)OCc2csc(-c3ccccc3)n2)cc1	inconclusive: 1.26 µM [inhibitor, partial curve, poor fit]	–
O=C(CCn1ccnc1)Nc1nc2ccccc2[nH]1	–	inactive: -13.1%
N#C/C(C(=S)Nc1ccccc1)=C1/NN=C(N2CCOCC2)N1c1ccccc1	active: 4.47 µM	–
Cc1onc(-c2ccccc2)c1C(=O)Nc1nc(-c2ccccc2)cs1	inconclusive: 35.5 µM [inhibitor, single point]	–
Cc1ccc(CSc2ccc(-c3ccco3)nn2)cc1	inconclusive: 0.501 µM [activator, full curve, poor fit]	–
Cc1ccccc1OCC(O)Cn1c(NCc2ccco2)nc2c1c(=O)n(C)c(=O)n2C (stereo unspecified)	inconclusive: 25.1 µM [inhibitor, single point]	–
O=S1(=O)Nc2c(ccc3cccnc23)-c2ccccc21	active: 3.16 µM and active: 2.51 µM	–
COc1ccc(C(=O)/C=C/c2ccc(OC)c(CN3CCOCC3)c2)cc1	inconclusive: 5.62 µM [activator, single point]	–
COc1ccc(CNC[C@@H](CCCCN(C)Cc2ccc(OC)cc2)N2C[C@H](c3ccccc3)N(CCc3ccc(Cl)c(Cl)c3)C(=O)C2=O)cc1	active: 5.01 µM	–
COc1cc2c(cc1NC(=O)CN(C)Cc1nc3ccccc3c(=O)[nH]1)oc1ccccc12	active: 11.2 µM	–
COc1cc(C)c(CC/C(C)=C/C=C/C(C)=O)c(C)c1C	–	inactive: -13.1%
Cc1ccccc1NC(=O)N1CCCC(c2nc(-c3ccc(C(C)C)cc3)no2)C1 (stereo unspecified)	inconclusive: 20 µM [inhibitor, partial curve]	–
COc1cccc(/C=N/NC(=O)CN2CC(c3ccccc3)CC2=O)c1O (stereo unspecified)	active: 1.26 µM	–
Cc1cccc(NC(=O)c2cccc(OC(=S)N3CCOCC3)c2)c1	inconclusive: 0.562 µM [activator, single point]	–
CS(=O)(=O)c1ccc2nc(NC(=O)CCS(=O)(=O)c3ccccc3)sc2c1	inconclusive: 35.5 µM [inhibitor, single point]	–
COc1cccc(CN(C(=O)c2cc3ccccc3oc2=O)C2CCS(=O)(=O)C2)c1 (stereo unspecified)	–	inactive: 0%
C/C=C(/C)C(=O)O[C@@H]1c2c(ccc3ccc(=O)oc23)OC(C)(C)[C@@H]1OC(=O)/C(C)=C\C	inconclusive: 35.5 µM [inhibitor, single point]	–
Cc1ccccc1CN1CCc2c(OCC(=O)N3CCCc4ccccc43)cccc2C1=O	inconclusive: 35.5 µM [inhibitor, single point]	–
Cc1cccc(NC(=S)NNC(=S)NC2CCCCC2)c1C	inconclusive: 15.8 µM [inhibitor, partial curve, poor fit]	–
Cc1ccc2cc(CN(CCN(C)C)C(=O)Nc3ccc(Cl)cc3)c(=O)[nH]c2c1	inconclusive: 11.2 µM [inhibitor, single point]	–
O=C(N/N=C/C=C/c1ccc2c(c1)OCO2)C(O)c1ccccc1 (stereo unspecified)	inconclusive: 35.5 µM [inhibitor, single point]	–
